Data from the supplement of paper PMC6531468.
The list shows a part of the results. Values come from read counts of a selection and are noisy. Each score is taken over the longer molecules that contain the sequence shown.

Experiments:
Assay in all cases: 6-mer SELEX enrichment z-score vs GST control; IMP3 is the RNA-binding protein IGF2BP3; higher = more enriched by binding
IMP3 KH1-4 = conditions: construct: KH1-4 (164-579); SELEX round: R4
Procedure: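 SELEX-seq with GST-tagged IMP3 KH1-4 (Pro164-Lys579) and an N40 RNA pool, round 4. 6-mer z-score of sequence-tag enrichment normalised to the corresponding GST SELEX round; RNA k-mers written as DNA (T for U).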

IMP3 RRM1-2 = conditions: construct: RRM1-2 (1-163); SELEX round: R2
IMP3 RRM1-2, sequence (chain, as listed by the source): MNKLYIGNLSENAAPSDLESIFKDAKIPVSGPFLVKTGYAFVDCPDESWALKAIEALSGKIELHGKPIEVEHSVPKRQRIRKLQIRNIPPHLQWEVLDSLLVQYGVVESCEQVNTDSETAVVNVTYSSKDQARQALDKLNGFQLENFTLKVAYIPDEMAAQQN
Procedure: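 SELEX-seq with GST-tagged IMP3 RRM1-2 (Met1-Asn163) and an N40 RNA pool, round 2. 6-mer enrichment z-score normalised to GST SELEX. RNA written as DNA (T = U).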

IMP3 full-length = IMP3 full-length (UniProt O00425); conditions: construct: FL IMP3 (1-579); SELEX round: R4
UniProt O00425, sequence (O00425 whole entry): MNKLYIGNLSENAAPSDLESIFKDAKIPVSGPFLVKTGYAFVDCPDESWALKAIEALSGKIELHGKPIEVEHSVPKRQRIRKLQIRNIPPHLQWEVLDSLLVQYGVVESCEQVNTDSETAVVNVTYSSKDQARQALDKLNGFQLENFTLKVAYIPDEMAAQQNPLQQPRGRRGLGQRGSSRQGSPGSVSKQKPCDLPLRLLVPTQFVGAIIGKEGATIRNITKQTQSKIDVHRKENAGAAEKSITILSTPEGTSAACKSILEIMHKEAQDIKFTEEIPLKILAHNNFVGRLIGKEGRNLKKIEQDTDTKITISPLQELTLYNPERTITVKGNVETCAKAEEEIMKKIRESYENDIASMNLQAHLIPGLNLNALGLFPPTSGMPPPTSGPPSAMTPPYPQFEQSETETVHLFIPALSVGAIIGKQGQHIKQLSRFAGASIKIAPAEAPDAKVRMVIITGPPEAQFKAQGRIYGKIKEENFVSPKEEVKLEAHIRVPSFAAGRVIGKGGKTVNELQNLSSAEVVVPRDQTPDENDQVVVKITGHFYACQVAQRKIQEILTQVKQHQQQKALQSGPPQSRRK
Procedure: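 SELEX-seq with GST-tagged full-length IMP3 and an N40 RNA pool, round 4. Each 6-mer is scored as an enrichment z-score of sequence tags containing it, normalised to the matching GST SELEX round. RNA written as DNA (T = U).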

IMP3 KH1-2 = conditions: construct: KH1-2 (164-376); SELEX round: R4
IMP3 KH1-2, sequence (chain, as listed by the source): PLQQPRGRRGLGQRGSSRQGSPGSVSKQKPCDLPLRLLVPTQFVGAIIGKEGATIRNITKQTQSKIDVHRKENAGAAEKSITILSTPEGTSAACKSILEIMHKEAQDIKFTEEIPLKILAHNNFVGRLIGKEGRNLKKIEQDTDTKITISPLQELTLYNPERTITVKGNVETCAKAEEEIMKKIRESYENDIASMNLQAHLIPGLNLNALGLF
Procedure: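 SELEX-seq with GST-tagged IMP3 KH1-2 (Pro164-Phe376) and an N40 RNA pool, round 4 (stringent 300/600 mM KCl washes). 6-mer z-score of sequence-tag enrichment normalised to the corresponding GST SELEX round; RNA k-mers written as DNA (T for U).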

IMP3 KH3-4 = conditions: construct: KH3-4 (377-579); SELEX round: R4
IMP3 KH3-4, sequence (chain, as listed by the source): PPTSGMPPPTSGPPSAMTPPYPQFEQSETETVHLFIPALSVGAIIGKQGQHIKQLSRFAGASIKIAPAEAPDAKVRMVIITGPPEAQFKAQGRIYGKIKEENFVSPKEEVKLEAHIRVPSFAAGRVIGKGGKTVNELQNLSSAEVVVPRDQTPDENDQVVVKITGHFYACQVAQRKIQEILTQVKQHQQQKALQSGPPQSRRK
Procedure: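 SELEX-seq with GST-tagged IMP3 KH3-4 (Pro377-Lys579) and an N40 RNA pool, round 4. 6-mer z-score of sequence-tag enrichment normalised to the corresponding GST SELEX round; RNA k-mers written as DNA (T for U).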

IMP3 KH1-4, sequence (chain, as listed by the source): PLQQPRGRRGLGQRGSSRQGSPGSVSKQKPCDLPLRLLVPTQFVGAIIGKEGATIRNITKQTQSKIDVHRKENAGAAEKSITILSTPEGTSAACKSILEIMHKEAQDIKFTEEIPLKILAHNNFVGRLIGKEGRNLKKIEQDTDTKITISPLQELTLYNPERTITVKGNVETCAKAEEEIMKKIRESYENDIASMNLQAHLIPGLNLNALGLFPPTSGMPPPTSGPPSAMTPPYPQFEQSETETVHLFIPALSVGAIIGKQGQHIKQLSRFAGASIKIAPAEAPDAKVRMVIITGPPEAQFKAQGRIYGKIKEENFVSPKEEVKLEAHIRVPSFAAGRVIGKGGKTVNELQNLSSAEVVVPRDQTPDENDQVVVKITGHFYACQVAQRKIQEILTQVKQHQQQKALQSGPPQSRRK

Sequence | 6-mer SELEX enrichment z-score (IMP3 KH1-4) | 6-mer SELEX enrichment z-score (IMP3 RRM1-2) | 6-mer SELEX enrichment z-score (IMP3 full-length) | 6-mer SELEX enrichment z-score (IMP3 KH1-2) | 6-mer SELEX enrichment z-score (IMP3 KH3-4)
CCTGGC | -0.494 | -0.04 | -0.052 | -0.429 | -0.712
TGTGCT | 0.219 | 0.168 | -0.085 | 0.113 | 0.218
GTCATT | 0.515 | 0.567 | 0.716 | 0.361 | 0.541
GAGAAA | 0.062 | -1.86 | -1.16 | -0.14 | 0.885
ATGCGC | -0.067 | -0.033 | 0.116 | -0.052 | -0.024
CATTGA | 0.214 | 0.251 | 0.364 | 0.08 | 0.216
CAATTG | 0.028 | -0.103 | -0.208 | -0.161 | 0.061
TGCTGT | 0.497 | 0.21 | 0.119 | 0.381 | 0.355
CCCCCG | 0.41 | -0.865 | -0.395 | 1.23 | -0.646
GACGTC | -0.867 | -0.12 | 0.013 | -0.777 | -0.714
GAATAA | 1.3 | -1.63 | -0.728 | 1 | 2.51
TTGTCT | -0.018 | 0.458 | 0.12 | -0.027 | 0.126
GTCCGT | -0.165 | 0.187 | 0.202 | -0.155 | -0.288
CTGGTC | 0.008 | 0.238 | 0.167 | -0.016 | -0.101
TCCACT | 0.446 | 0.348 | -0.033 | 0.448 | -0.036
TCTCTT | 0.445 | 0.585 | 0.27 | 0.531 | 0.473
CATCCG | -0.17 | 0.238 | 0.69 | -0.095 | -0.863
GCGCCT | -0.899 | 0.003 | -0.153 | -0.657 | -0.668
ATTTCA | 1.61 | 1.24 | 1.53 | 1.94 | 1.65
GTGTCC | -0.635 | 0.003 | -0.17 | -0.565 | -0.663

Sequence | 6-mer SELEX enrichment z-score (IMP3 KH1-4) | 6-mer SELEX enrichment z-score (IMP3 RRM1-2) | 6-mer SELEX enrichment z-score (IMP3 full-length) | 6-mer SELEX enrichment z-score (IMP3 KH1-2) | 6-mer SELEX enrichment z-score (IMP3 KH3-4)
GCGGAA | -0.764 | -0.575 | -0.304 | -0.7 | -0.549
ACGCGT | -2.07 | -0.048 | -0.919 | -1.83 | -1.65
GGGATG | 0.815 | -0.092 | 0.238 | 0.829 | 0.803
TAGTGG | 0.457 | 0.306 | 0.257 | 0.324 | 0.519
ACTCTG | -0.47 | -0.211 | -0.277 | -0.347 | -0.52
GCCATG | 0.315 | -0.074 | 0.33 | 0.14 | 0.065
CTGCGC | -0.544 | 0.088 | -0.041 | -0.37 | -0.637
AACACG | 0.358 | 0.882 | 0.873 | 0.098 | 0.188
CTGATC | 0.066 | -0.008 | -0.052 | -0.033 | -0.256
AAGGGA | 0.812 | -0.817 | -0.342 | 0.671 | 1
GGTGTT | -0.194 | 0.496 | 0.04 | -0.039 | 0.109
TCTGGG | -0.274 | 0.459 | 0.124 | -0.111 | -0.051
ACATGT | 1.18 | 0.741 | 0.946 | 0.734 | 0.962
AGTCCT | 0.195 | -0.117 | -0.186 | 0.038 | -0.084
CGCCCC | -0.205 | -0.751 | -0.418 | 0.379 | -1.09
TGAGTA | -0.27 | -0.163 | -0.305 | -0.292 | -0.009
CCACAA | -0.772 | 0.83 | -0.383 | -0.514 | -1.41
ATGGGG | 1.37 | 0.225 | 0.56 | 1.54 | 1.64
CCTCCT | -0.091 | 0.001 | -0.52 | -0.083 | -0.504
CAAACG | -1.87 | -1.06 | -1.16 | -1.86 | -1.88

Sequence | 6-mer SELEX enrichment z-score (IMP3 KH1-4) | 6-mer SELEX enrichment z-score (IMP3 RRM1-2) | 6-mer SELEX enrichment z-score (IMP3 full-length) | 6-mer SELEX enrichment z-score (IMP3 KH1-2) | 6-mer SELEX enrichment z-score (IMP3 KH3-4)
GCTGGA | 0.232 | -0.187 | 0.165 | 0.211 | 0.181
ACTGTG | 0.412 | -0.273 | -0.123 | 0.215 | 0.195
AATTCG | -0.073 | -0.293 | -0.291 | -0.179 | 0.009
TTCGCG | -0.387 | 0.303 | -0.132 | -0.382 | -0.292
CGGTGT | -0.449 | 0.245 | -0.047 | -0.368 | -0.295
GACGTA | -1.8 | -0.592 | -1.12 | -1.68 | -1.52
GACTAG | -0.222 | -0.362 | -0.342 | -0.256 | -0.159
ACGCAA | -0.127 | 0.083 | 0.179 | 0.085 | -0.165
GAGCCC | -1.25 | -1.05 | -0.268 | -0.923 | -1.44
GATACT | 0.007 | -0.301 | -0.278 | -0.015 | 0.141
GCAGCT | 0.031 | 0.37 | 0.462 | 0.05 | -0.065
GCTTCC | 0.091 | 0.118 | 0.043 | 0.071 | -0.203
GAGTGA | -0.549 | -0.627 | -0.639 | -0.616 | -0.387
TACCCG | -1.39 | -0.327 | -0.903 | -1.31 | -1.61
TACCAT | 0.415 | 0.301 | 0.168 | 0.296 | 0.099
TTGAGG | -0.006 | 0.037 | -0.004 | -0.002 | 0.261
CTCGAT | -1.08 | 0.096 | -0.453 | -0.931 | -0.868
ACTCTC | -0.198 | 0.291 | -0.243 | -0.143 | -0.473
CCCGTA | -0.671 | -0.604 | -0.539 | -0.617 | -0.948
CCTGCA | -0.248 | 0.009 | -0.075 | -0.197 | -0.681
